Experimental data published in the supplement of paper PMC11417369.
The other results are listed elsewhere or left out.

What follows are sequences tested on PfHDP1 homeodomain (GST-tagged) (assay: gcPBM binding intensity (ln(normalized median fluorescence intensity)); higher = stronger DNA binding).
In short: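 After 1 h on an Agilent 4 × 180k array of primer-extended double-stranded 36-bp intergenic genomic probes and negative controls, bound GST-tagged P. falciparum DNA-binding domains were detected with Alexa488 anti-GST antibody and scanned at 488 nm. The domains had been expressed in E. coli, and binding took place in 1× PBS with 1% milk, 0.2 mg/ml BSA, 0.5% salmon testes DNA and 0.03% Triton X-100. Binding intensity is the highest Masliner-normalised natural-log median intensity across replicate spots of either probe orientation.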

| Sequence | gcPBM binding intensity (ln) |
| --- | --- |
| ATATATATATATATATGTACGTACTCAGTTATGCCT [XGTACX_site453] | 9.39 |
| ATTTATTAACCATATACACACATATATTTGTATTTA [CACACA_site6744] | 6.84 |
| ATAGTATCTGGTAGCTGTACGAGTCGTAGAGTGCAG [XGTACX_site2020] | 7.04 |
| AATATATTATAATATACACACATATATGCTCTTTAA [CACACA_site4131] | 7.1 |
| ATATATTATATATATTTTAAGTAATTTGCAAAAAAT [GTGCAC_negctrl_site361] | 9.59 |
| ATTTAAAAGAAATAATGTACGAATCATATTTGATAT [XGTACX_site1785] | 6.22 |
| ATGTATATAATATTATGTACATATATGAAATATTTT [XGTACX_site8168] | 6.66 |
| TTTATTTATTATTGTTGTACACTTTTTATAAAAAAA [XGTACX_site5114] | 6.82 |
| ATAAGAAAAGGACACACACACAAAAAAAAAAAAAAA [CACACA_site7351] | 6.25 |
| TGTTCTTATTTTATAAGCATATAATTAATCATAATG [CACACA_negctrl_site1493] | 6.07 |
| TAGTTTTTTATAAAATTATTTATATAAAGGTAAAAA [CACACA_negctrl_site490] | 6.69 |
| TTCTTTTTTATTTTTCAACACACATAATAAATTTCT [CACACA_site8253] | 6.98 |
| CTTTCCATATATGATAGTACACGATAAAAAAAAAAA [XGTACX_site5772] | 6.74 |
| TTTAAAAAAAATTCATATTATATATATATATATTAT [CACACA_negctrl_site1733] | 6.38 |
| AAAGAAATAAGGTGCACACATATACATATATATATA [CACACA_site429] | 9.38 |
| AACGATTTACATCACTGTACTAATGATATACCTCAT [XGTACX_site7463] | 6.36 |
| TATATATTTTCTTTTGCACACTGTTTTCCTTTTTTT [CACACA_site2739] | 10.2 |
| TATATATATATATATTGTACTATATAGTATCTTTTT [XGTACX_site1646] | 9.16 |
| TACCCTTGCATGTAGGTGCAATTTTTTTTTTTTTTT | 9.32 |
| TTCGTAATTTATATCACACACATATATATATAATAA [CACACA_site3115] | 7.07 |
| CAACTTTATACATATAGTACAAGTTATATTTTATTA [XGTACX_site6651] | 6.13 |
| AAATTTGAAATGCATGAACACACACCGCTATAAATG [CACACA_site8230] | 6.83 |

| Sequence | gcPBM binding intensity (ln) |
| --- | --- |
| TAAATATAGAAACACACACACATTAATACATATATT [CACACA_site3489] | 6.68 |
| TAATTTTTTATATATTGTACAAATAATATATGATGT [XGTACX_site268] | 6.55 |
| AAGGTATACACTGCTTTATCAAGTTTAACTCTTTTT [XGTACX_negctrl_site118] | 6.26 |
| ACATCATAAAATTTATGTACACATTTTTAATTATAC [XGTACX_site7759] | 6.51 |
| ATCATTTTTATGTACACACACATATACGTTGAATAT [CACACA_site1865] | 7.04 |
| AAGATATGAGGGAATACACACATATTTATATTTATA [CACACA_site6846] | 6.29 |
| TATAAAATTTACGTGTGTACATATTTAATAATTTTT [XGTACX_site5001] | 6.58 |
| ATATATATATAATTATATAAAATATATCATATGTTA [XGTACX_negctrl_site47] | 8.3 |
| AAGAAATAAATACATACACACATATATAAATAAATA [CACACA_site7559] | 6.66 |
| AAGAAATAATTATTATGTACTTAAAAAAATTAAAAT [XGTACX_site7423] | 6.28 |
| TTTATGTATTTAATATGTACATATAGTTGTTAATAA [XGTACX_site1938] | 6.52 |
| GCTATATATTAATGTTGTACTTTATGTTCATATTGT [XGTACX_site3619] | 6.58 |
| AAAATGTACGCATATACACACACATAAATAGATACG [CACACA_site9124] | 6.82 |
| AATAAAAATAAAAGCACACATAAATATATATATATT [CACACA_site1441] | 6.55 |
| TCATGGCCATTTTCAGTGCATATGTGTATTTAATAT [GTGCAC_site9529] | 9.34 |
| GCAAGTCCATGAACGGTGCAGGAATTAACAAAAATA | 7.43 |
| GTTTCTACTTATATAACAGGACACGTGTGAATAATT [TGCATGCA_negctrl_site430] | 7.17 |
| AAAAAAAAAAAACATTGTACGCACATTTTATATGTC [XGTACX_site6974] | 6.69 |
| TTGAAGGTGGCAATGTGTACATAGAATAACCAGTGC [XGTACX_site4738] | 6.71 |
| ACAATTGCATCTATCACACATACATACATACATACA [CACACA_site5063] | 7.74 |
| AAAAAAATACATACGTGTACCCACATATATGTATCT [XGTACX_site5319] | 6.01 |
| TATAAATATCTGTATGCACACATTTTTTTTGGAAAA [CACACA_site4734] | 9.28 |

| Sequence | gcPBM binding intensity (ln) |
| --- | --- |
| TCAACAAAATTGAAGGAACACACATACATATATATA [CACACA_site7940] | 6.67 |
| ATTTTTTCTCATAAAAACGTGAACGTTTATTTTACA [CACACA_negctrl_site1041] | 6.69 |
| ATTATAAAAGAATTTTTTTTTATTTCATTAAAATAT [CACACA_negctrl_site1137] | 5.62 |
| AGCACATAAATAATTAAACACACATTGTTCTAGACA [CACACA_site8746] | 6.3 |
| TTACTATAAAATGTCACACATTCTGTTTCCTTACTT [CACACA_site5714] | 6.36 |
| TCATGGGTGTATTTCACACACGGATAATCATTTATA [CACACA_site4663] | 6.41 |
| TATAATGATGATGATAGTACGTATTAGTATAAAAAA [XGTACX_site9] | 6.82 |
| TCATAAAAATAAAAATGTACACATTAGAAATATTGT [XGTACX_site3671] | 6.58 |
| ATATTTTTTTTTGTTACACACGTTTTTTAAAAAATG [CACACA_site1603] | 7.07 |
| AGAAATAAAAAAAAAAATATATATATTATATATATA [CACACA_negctrl_site1799] | 7.74 |
| TTATAATTTTTCTATTGTACATTTAATAATATATAT [XGTACX_site7326] | 6.59 |
| TTATACATATTTATATGTACGTAATATAATATTAAT [XGTACX_site6520] | 6.6 |
| TATTTAATTTATACACGTACATATATAAATAATACA [XGTACX_site1148] | 6.55 |
| ATGAAGAAATAAATGTGTACATATCTTAGTATCATA [XGTACX_site8658] | 6.48 |
| TTATAAAATAAACTTACACACATGAAATATTATAGT [CACACA_site7000] | 6.35 |
| CAAACAAATTGTGAAACACACATATTTATATTTATA [CACACA_site7030] | 6.15 |
| TTTATATGCAATTAAGTGCATAAGAAAAAAAAAGGA [GTGCAC_site9966] | 10.1 |
| TATATTATATATTTATGTACGTATTTGTAAAAAGAT [XGTACX_site3444] | 6.86 |
| TTATAATAAATATTTATTATATATAATATATATTAC [CACACA_negctrl_site1802] | 6.52 |
| TTTTTTATTAAATATATATAATAATAATAATTTGTA [CACACA_negctrl_site1719] | 5.9 |
| TTTGTTTTATGTGGTTGTACACAAATACAATTTAAA [XGTACX_site5156] | 6.4 |
| GTTTCCTTAATATTCACACACATATCTATAATATAT [CACACA_site6959] | 7.22 |

| Sequence | gcPBM binding intensity (ln) |
| --- | --- |
| ATAATAATTATATCAGTGCGCATATATATTTATTTA | 7.29 |
| TCATAGCACAAAAAATGTACTTATTATTTAATATTT [XGTACX_site5687] | 6.32 |
| ATGTGATAATTTAATAGTACATAACAGTTTAACAAT [XGTACX_site5854] | 6.86 |
| CAAAATTAATAAGTCACACACACATATATAATATAT [CACACA_site798] | 6.87 |
| TATATTTATACAATATGTACATATTATATATATATA [XGTACX_site3098] | 8.6 |
| TATAAAAATATATGCACACAAATAAAAAATTATATA [CACACA_site3629] | 9.87 |
| GATCATAATATTTAAAAGAATATATATAAAAAGGAA [XGTACX_negctrl_site310] | 6.66 |
| ATGGTATCTTTTAGAAGTACATCATGATAATAATTT [XGTACX_site5544] | 6.36 |
| GTATTAATTTATATATGTACATATGTGATATATATA [XGTACX_site5825] | 6.85 |
| CACTTAAAAAAAATACGTACACATATATATATATAT [XGTACX_site2054] | 9.39 |
| TATCAGTATACAACAACACACATAATGTTTGTCATC [CACACA_site2980] | 6.67 |
| CAAAAATAAATATAAACACACAATAAATAAATAAAT [CACACA_site891] | 6.6 |
| ATTTAATAACGGCATGCATGTCCTTATATAAATTTA [TGCATGCA_site1012] | 6.66 |
| TGAATTGTAATTTATAATATACGTGGTTTCTACTTA [CACACA_negctrl_site559] | 6.16 |
| CCTTACCAAATAATATGTACACATTTAATGTTATAT [XGTACX_site7840] | 6.67 |
| TATTATATATTATATAGTACATATTTATGTAAGAGG [XGTACX_site3099] | 6.97 |
| TATCAAAAAAAAAGTAGTACGATAATAGTTTCCCAA [XGTACX_site1812] | 6.44 |
| AAAAAAAAAACAAATGCATGTAATATAAGAATTACA [TGCATGCA_site908] | 6.13 |
| ACTTATAATATTTAGTGTACATATTGTGACTAATAC [XGTACX_site1508] | 6.54 |
| ATTTTAAAAAATTAATGTACTTAATTAATACTGAAA [XGTACX_site7702] | 6.18 |
| TATTTATAAATTTACACACACACATGTGAACATAAA [CACACA_site1909] | 6.82 |
| TGGAATAAAAAAAGGAGTACAATTAATTATTCTTAA [XGTACX_site8299] | 6.3 |
